# Test results published in the supplement of paper PMC8728848.
# The list shows a part of the results.
# Assays:
# Test in all cases: glycan array binding signal (z-score within array); higher = stronger binding
# Conditions in all cases: glycan notation: IUPAC condensed, linker removed
# [1] = target: Fuc(a1-2)Gal6S(b1-3)GlcNAc
# Procedure, shortened: (§1)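 Arrays were curated from the Consortium for Functional Glycomics database, 3228 in total, and kept only where the protein sequence was available. Binding is expressed as a within-array Z-score. This score was averaged across arrays of the same protein sequence at different concentrations or buffers and across linkers, and negative values can be read as non-binding.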
# [2] = target: Fuc(a1-2)Gal6S(b1-3)GlcNAc6S
# Procedure, shortened: as §1
# [3] = target: Fuc(a1-2)Gal6S(b1-4)Glc
# Procedure, shortened: as §1
# [4] = target: Fuc(a1-2)Gal6S(b1-4)Glc6S
# Procedure, shortened: as §1
# [5] = target: Fuc(a1-2)[Gal(a1-3)]Gal
# Procedure, shortened: as §1
# [6] = target: Fuc(a1-2)[Gal(a1-3)]Gal(b1-3)GalNAc
# Procedure, shortened: as §1
# [7] = target: Fuc(a1-2)[Gal(a1-3)]Gal(b1-3)GalNAc(b1-3)Gal(a1-4)Gal(b1-4)Glc
# Procedure, shortened: as §1
# [8] = target: Fuc(a1-2)[Gal(a1-3)]Gal(b1-3)GlcNAc
# Procedure, shortened: as §1
# [9] = target: Fuc(a1-2)[Gal(a1-3)]Gal(b1-3)GlcNAc(b1-2)Man(a1-3)[Fuc(a1-2)[Gal(a1-3)]Gal(b1-3)GlcNAc(b1-2)Man(a1-6)]Man(b1-4)GlcNAc(b1-4)GlcNAc
# Procedure, shortened: as §1
# [10] = target: Fuc(a1-2)[Gal(a1-3)]Gal(b1-3)GlcNAc(b1-2)Man(a1-3)[Fuc(a1-2)[Gal(a1-3)]Gal(b1-3)GlcNAc(b1-2)Man(a1-6)]Man(b1-4)GlcNAc(b1-4)[Fuc(a1-6)]GlcNAc
# Procedure, shortened: as §1
# [11] = target: Fuc(a1-2)[Gal(a1-3)]Gal(b1-3)GlcNAc(b1-3)GalNAc
# Procedure, shortened: as §1
# [12] = target: Fuc(a1-2)[Gal(a1-3)]Gal(b1-3)GlcNAc(b1-6)GalNAc
# Procedure, shortened: as §1
# [13] = target: Fuc(a1-2)[Gal(a1-3)]Gal(b1-4)Glc
# Procedure, shortened: as §1
# [14] = target: Fuc(a1-2)[Gal(a1-3)]Gal(b1-4)GlcNAc
# Procedure, shortened: as §1
# [15] = target: Fuc(a1-2)[Gal(a1-3)]Gal(b1-4)GlcNAc(b1-2)Man
# Procedure, shortened: as §1
# [16] = target: Fuc(a1-2)[Gal(a1-3)]Gal(b1-4)GlcNAc(b1-2)Man(a1-3)[Fuc(a1-2)[Gal(a1-3)]Gal(b1-4)GlcNAc(b1-2)Man(a1-6)]Man(b1-4)GlcNAc(b1-4)GlcNAc
# Procedure, shortened: as §1
# [17] = target: Fuc(a1-2)[Gal(a1-3)]Gal(b1-4)GlcNAc(b1-2)Man(a1-3)[Fuc(a1-2)[Gal(a1-3)]Gal(b1-4)GlcNAc(b1-2)Man(a1-6)]Man(b1-4)GlcNAc(b1-4)[Fuc(a1-6)]GlcNAc
# Procedure, shortened: as §1
# [18] = target: Fuc(a1-2)[Gal(a1-3)]Gal(b1-4)GlcNAc(b1-3)GalNAc
# Procedure, shortened: as §1
# [19] = target: Fuc(a1-2)[Gal(a1-3)]Gal(b1-4)GlcNAc(b1-3)[Fuc(a1-2)[Gal(a1-3)]Gal(b1-4)GlcNAc(b1-6)]GalNAc
# Procedure, shortened: as §1
# [20] = target: Fuc(a1-2)[Gal(a1-3)]Gal(b1-4)GlcNAc(b1-6)GalNAc
# Procedure, shortened: as §1
# [21] = target: Fuc(a1-2)[Gal(a1-3)]Gal(b1-4)[Fuc(a1-3)]Glc
# Procedure, shortened: as §1
# [22] = target: Fuc(a1-2)[Gal(a1-3)]Gal(b1-4)[Fuc(a1-3)]GlcNAc
# Procedure, shortened: as §1
# [23] = target: Fuc(a1-2)[Gal(a1-3)]Gal(b1-4)[Fuc(a1-3)]GlcNAc(b1-3)GalNAc
# Procedure, shortened: as §1
# [24] = target: Fuc(a1-2)[Gal(a1-4)]Gal(b1-4)GlcNAc
# Procedure, shortened: as §1
# [25] = target: Fuc(a1-2)[GalNAc(a1-3)]Gal
# Procedure, shortened: as §1
# [26] = target: Fuc(a1-2)[GalNAc(a1-3)]Gal(b1-3)GalNAc(a1-3)[Fuc(a1-2)]Gal(b1-4)GlcNAc
# Procedure, shortened: as §1
# [27] = target: Fuc(a1-2)[GalNAc(a1-3)]Gal(b1-3)GalNAc(b1-3)Gal(a1-4)Gal(b1-4)Glc
# Procedure, shortened: as §1
# [28] = target: Fuc(a1-2)[GalNAc(a1-3)]Gal(b1-3)GlcNAc
# Procedure, shortened: as §1
# [29] = target: Fuc(a1-2)[GalNAc(a1-3)]Gal(b1-3)GlcNAc(b1-2)Man(a1-3)[Fuc(a1-2)[GalNAc(a1-3)]Gal(b1-3)GlcNAc(b1-2)Man(a1-6)]Man(b1-4)GlcNAc(b1-4)GlcNAc
# Procedure, shortened: as §1
# [30] = target: Fuc(a1-2)[GalNAc(a1-3)]Gal(b1-3)GlcNAc(b1-2)Man(a1-3)[Fuc(a1-2)[GalNAc(a1-3)]Gal(b1-3)GlcNAc(b1-2)Man(a1-6)]Man(b1-4)GlcNAc(b1-4)[Fuc(a1-6)]GlcNAc
# Procedure, shortened: as §1
# [31] = target: Fuc(a1-2)[GalNAc(a1-3)]Gal(b1-3)GlcNAc(b1-3)GalNAc
# Procedure, shortened: as §1
# [32] = target: Fuc(a1-2)[GalNAc(a1-3)]Gal(b1-3)GlcNAc(b1-6)GalNAc
# Procedure, shortened: as §1
# [33] = target: Fuc(a1-2)[GalNAc(a1-3)]Gal(b1-4)Glc
# Procedure, shortened: as §1
# [34] = target: Fuc(a1-2)[GalNAc(a1-3)]Gal(b1-4)GlcNAc
# Procedure, shortened: as §1
# [35] = target: Fuc(a1-2)[GalNAc(a1-3)]Gal(b1-4)GlcNAc(b1-2)Man
# Procedure, shortened: as §1
# [36] = target: Fuc(a1-2)[GalNAc(a1-3)]Gal(b1-4)GlcNAc(b1-2)Man(a1-3)[Fuc(a1-2)[GalNAc(a1-3)]Gal(b1-4)GlcNAc(b1-2)Man(a1-6)]Man(b1-4)GlcNAc(b1-4)GlcNAc
# Procedure, shortened: as §1
# [37] = target: Fuc(a1-2)[GalNAc(a1-3)]Gal(b1-4)GlcNAc(b1-2)Man(a1-3)[Fuc(a1-2)[GalNAc(a1-3)]Gal(b1-4)GlcNAc(b1-2)Man(a1-6)]Man(b1-4)GlcNAc(b1-4)[Fuc(a1-6)]GlcNAc
# Procedure, shortened: as §1
# [38] = target: Fuc(a1-2)[GalNAc(a1-3)]Gal(b1-4)GlcNAc(b1-3)Gal(b1-4)GlcNAc
# Procedure, shortened: as §1
# [39] = target: Fuc(a1-2)[GalNAc(a1-3)]Gal(b1-4)GlcNAc(b1-3)Gal(b1-4)GlcNAc(b1-3)Gal(b1-4)GlcNAc
# Procedure, shortened: as §1
# [40] = target: Fuc(a1-2)[GalNAc(a1-3)]Gal(b1-4)GlcNAc(b1-3)GalNAc
# Procedure, shortened: as §1
# [41] = target: Fuc(a1-2)[GalNAc(a1-3)]Gal(b1-4)GlcNAc(b1-3)[Fuc(a1-2)[GalNAc(a1-3)]Gal(b1-4)GlcNAc(b1-6)]GalNAc
# Procedure, shortened: as §1
# [42] = target: Fuc(a1-2)[GalNAc(a1-3)]Gal(b1-4)GlcNAc(b1-6)GalNAc
# Procedure, shortened: as §1
# [43] = target: Fuc(a1-2)[GalNAc(a1-3)]Gal(b1-4)[Fuc(a1-3)]GlcNAc
# Procedure, shortened: as §1
# [44] = target: Fuc(a1-2)[GalNAc(a1-3)]Gal(b1-4)[Fuc(a1-3)]GlcNAc(b1-3)GalNAc
# Procedure, shortened: as §1
# [45] = target: Fuc(a1-2)[GalNAc(a1-4)]Gal(b1-4)GlcNAc
# Procedure, shortened: as §1
binder,measurement,setting,value
APVPVTKLVCDGDTYKCTAYLDFGDGRWVAQWDTNVFHTG [PhoSpL (Pholiota squarrosa)],glycan array binding signal (z-score),[1],-0.893
same,glycan array binding signal (z-score),[2],-0.201
same,glycan array binding signal (z-score),[3],-0.066
same,glycan array binding signal (z-score),[4],-0.035
same,glycan array binding signal (z-score),[5],-0.213
same,glycan array binding signal (z-score),[6],0.048
same,glycan array binding signal (z-score),[7],-0.214
same,glycan array binding signal (z-score),[8],-0.165
same,glycan array binding signal (z-score),[9],-0.043
same,glycan array binding signal (z-score),[10],1.13
same,glycan array binding signal (z-score),[11],-0.092
same,glycan array binding signal (z-score),[12],-0.031
same,glycan array binding signal (z-score),[13],0.496
same,glycan array binding signal (z-score),[14],-0.344
same,glycan array binding signal (z-score),[15],0.428
same,glycan array binding signal (z-score),[16],-0.015
same,glycan array binding signal (z-score),[17],1.36
same,glycan array binding signal (z-score),[18],-0.278
same,glycan array binding signal (z-score),[19],-0.188
same,glycan array binding signal (z-score),[20],0.079
same,glycan array binding signal (z-score),[21],0.001
same,glycan array binding signal (z-score),[22],0.046
same,glycan array binding signal (z-score),[23],-0.154
same,glycan array binding signal (z-score),[24],0.637
same,glycan array binding signal (z-score),[25],-0.032
same,glycan array binding signal (z-score),[26],-0.051
same,glycan array binding signal (z-score),[27],-0.22
same,glycan array binding signal (z-score),[28],0.14
same,glycan array binding signal (z-score),[29],0.171
same,glycan array binding signal (z-score),[30],0.538
same,glycan array binding signal (z-score),[31],0.435
same,glycan array binding signal (z-score),[32],-0.402
same,glycan array binding signal (z-score),[33],-0.087
same,glycan array binding signal (z-score),[34],-0.101
same,glycan array binding signal (z-score),[35],0.067
same,glycan array binding signal (z-score),[36],0.183
same,glycan array binding signal (z-score),[37],-0.095
same,glycan array binding signal (z-score),[38],-0.362
same,glycan array binding signal (z-score),[39],-0.28
same,glycan array binding signal (z-score),[40],0.044
same,glycan array binding signal (z-score),[41],-0.173
same,glycan array binding signal (z-score),[42],-0.257
same,glycan array binding signal (z-score),[43],-0.019
same,glycan array binding signal (z-score),[44],0.243
same,glycan array binding signal (z-score),[45],0.072
